# Assay results: the supplement of paper PMC10037445
# The full ranking holds about 2,900 compounds; the median of “NF-kB SEAP reporter activity, fold change vs agonist alone” is about 0.99, and the highest 2% start at about 2.6. Some of the results follow.
# Columns and labels:
# [1] = tested on: RAW-Dual; experiment: NF-kB SEAP reporter activity, fold change vs agonist alone; higher = enhanced NF-kB activity; settings: library stock concentration (final ~1000-fold dilution): 10 mM
# Outline: (§1)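 RAW-Dual macrophages (50,000 cells/well in DMEM, 384-well plates) received 50 nL of library stock by pin tool, then a PRR agonist 1 h later, and were kept at 37 °C, 5% CO2. After 20 hours, supernatant was read for IRF by QuantiLuc luminescence and for NF-κB by QuantiBlue absorbance at 620 nm. Reporter activity is fold change over agonist-alone wells. Cytotoxic wells had IncuCyte confluency below 70% of agonist controls in both mask sets.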
# [2] = tested on: RAW-Dual; experiment: NF-kB SEAP reporter activity, fold change vs agonist alone; cytotoxicity flag (confluency mask): not cytotoxic; higher = enhanced NF-kB activity
# Outline: as §1
# [3] = tested on: RAW-Dual; experiment: NF-kB SEAP reporter activity, fold change vs agonist alone; cytotoxicity flag (confluency mask): cytotoxic (confluency <70% of control); higher = enhanced NF-kB activity
# Outline: as §1
# [4] = cytotoxicity flag (confluency mask): not cytotoxic, agonist: Imiquimod (TLR7) […]
# [5] = cytotoxicity flag (confluency mask): not cytotoxic, agonist: MPLA (TLR4) […]
# [6] = agonist: ODN 1826 (TLR9) 0.5 ug/mL
# [7] = agonist: Pam2CSK4 (TLR2/6) 0.1 ug/mL
# [8] = agonist: Pam3CSK4 (TLR2/1) 0.1 ug/mL
# [9] = cytotoxicity flag (confluency mask): cytotoxic (confluency <70% of control), agonist: Imiquimod (TLR7) […]
# [10] = cytotoxicity flag (confluency mask): cytotoxic (confluency <70% of control), agonist: MPLA (TLR4) […]
smiles,measurement,setting,value
CC(CCc1ccccc1)NCC(O)c1ccc(O)c(C(N)=O)c1.Cl (centres undefined),NF-kB SEAP reporter activity,[1]; [4],1.65
same,NF-kB SEAP reporter activity,[1]; [5],1.21
CC(CCc1ccccc1)NCC(O)c1ccc(O)c(C(N)=O)c1.Cl (centres undefined) (library stock concentration (final ~1000-fold dilution): 10 mM),NF-kB SEAP reporter activity,[2]; agonist: LPS (TLR4) 0.1 ug/mL,1.49
same,NF-kB SEAP reporter activity,[2]; [6],1.21
same,NF-kB SEAP reporter activity,[2]; [7],1.37
same,NF-kB SEAP reporter activity,[2]; [8],1.2
CCCCc1nc2cc(/C=C/C(=O)NO)ccc2n1CCN(CC)CC (library stock concentration (final ~1000-fold dilution): 10 mM),NF-kB SEAP reporter activity,[3]; agonist: LPS (TLR4) 0.1 ug/mL,4.93
same,NF-kB SEAP reporter activity,[3]; [6],1.54
same,NF-kB SEAP reporter activity,[3]; [7],0.93
same,NF-kB SEAP reporter activity,[3]; [8],1.99
CCCCc1nc2cc(/C=C/C(=O)NO)ccc2n1CCN(CC)CC,NF-kB SEAP reporter activity,[1]; [9],2.43
same,NF-kB SEAP reporter activity,[1]; [10],2.67
Nc1ccc(/C=C/C(=O)NCc2cc3cc(-c4ccc(C(=O)N5CCC(F)(F)CC5)cc4)cc(-c4ccc(F)cc4)c3o2)cn1,NF-kB SEAP reporter activity,[1]; [4],0.939
same,NF-kB SEAP reporter activity,[1]; [5],0.83
Nc1ccc(/C=C/C(=O)NCc2cc3cc(-c4ccc(C(=O)N5CCC(F)(F)CC5)cc4)cc(-c4ccc(F)cc4)c3o2)cn1 (library stock concentration (final ~1000-fold dilution): 10 mM),NF-kB SEAP reporter activity,[2]; agonist: LPS (TLR4) 0.1 ug/mL,0.54
same,NF-kB SEAP reporter activity,[2]; [6],0.91
same,NF-kB SEAP reporter activity,[2]; [7],0.361
same,NF-kB SEAP reporter activity,[2]; [8],0.425
NC(=O)c1nc(F)cnc1O,NF-kB SEAP reporter activity,[1]; [4],0.942
same,NF-kB SEAP reporter activity,[1]; [5],1.01
NC(=O)c1nc(F)cnc1O (library stock concentration (final ~1000-fold dilution): 10 mM),NF-kB SEAP reporter activity,[2]; agonist: LPS (TLR4) 0.1 ug/mL,1.03
same,NF-kB SEAP reporter activity,[2]; [6],0.981
same,NF-kB SEAP reporter activity,[2]; [7],0.983
same,NF-kB SEAP reporter activity,[2]; [8],0.977
O=C(NO)c1cccc(C(=O)NCCc2ccccc2)c1 (library stock concentration (final ~1000-fold dilution): 10 mM),NF-kB SEAP reporter activity,[2]; agonist: LPS (TLR4) 0.1 ug/mL,0.989
same,NF-kB SEAP reporter activity,[2]; [6],1.12
same,NF-kB SEAP reporter activity,[2]; [7],0.864
same,NF-kB SEAP reporter activity,[2]; [8],0.709
O=C(NO)c1cccc(C(=O)NCCc2ccccc2)c1,NF-kB SEAP reporter activity,[1]; [4],1.05
same,NF-kB SEAP reporter activity,[1]; [5],1.05
CC(=O)Nc1nc2c(Oc3cc(-c4ccc(C(F)(F)F)cc4)ncn3)cccc2s1 (library stock concentration (final ~1000-fold dilution): 10 mM),NF-kB SEAP reporter activity,[2]; agonist: LPS (TLR4) 0.1 ug/mL,0.799
same,NF-kB SEAP reporter activity,[2]; [6],0.891
same,NF-kB SEAP reporter activity,[2]; [7],0.972
same,NF-kB SEAP reporter activity,[2]; [8],0.971
CC(=O)Nc1nc2c(Oc3cc(-c4ccc(C(F)(F)F)cc4)ncn3)cccc2s1,NF-kB SEAP reporter activity,[1]; [4],0.846
same,NF-kB SEAP reporter activity,[1]; [5],1.03
CC(C)n1nc(-c2ccc3oc(N)nc3c2)c2c(N)ncnc21 (library stock concentration (final ~1000-fold dilution): 10 mM),NF-kB SEAP reporter activity,[2]; agonist: LPS (TLR4) 0.1 ug/mL,2.03
same,NF-kB SEAP reporter activity,[2]; [6],1.69
same,NF-kB SEAP reporter activity,[2]; [7],0.647
same,NF-kB SEAP reporter activity,[2]; [8],0.973
CC(C)n1nc(-c2ccc3oc(N)nc3c2)c2c(N)ncnc21,NF-kB SEAP reporter activity,[1]; [4],1.76
same,NF-kB SEAP reporter activity,[1]; [5],2.1
Nc1nc(NC2CC2)cc(-c2cccc(Cl)c2Cl)n1,NF-kB SEAP reporter activity,[1]; [4],1.1
same,NF-kB SEAP reporter activity,[1]; [5],1.09
Nc1nc(NC2CC2)cc(-c2cccc(Cl)c2Cl)n1 (library stock concentration (final ~1000-fold dilution): 10 mM),NF-kB SEAP reporter activity,[2]; agonist: LPS (TLR4) 0.1 ug/mL,1.07
same,NF-kB SEAP reporter activity,[2]; [6],0.971
same,NF-kB SEAP reporter activity,[2]; [7],1.08
same,NF-kB SEAP reporter activity,[2]; [8],0.753
CC(C)=CC[C@@H](O)C1=CC(=O)c2c(O)ccc(O)c2C1=O (library stock concentration (final ~1000-fold dilution): 10 mM),NF-kB SEAP reporter activity,[3]; agonist: LPS (TLR4) 0.1 ug/mL,0.371
same,NF-kB SEAP reporter activity,[3]; [6],0.246
same,NF-kB SEAP reporter activity,[3]; [7],0.115
same,NF-kB SEAP reporter activity,[3]; [8],0.251
CC(C)=CC[C@@H](O)C1=CC(=O)c2c(O)ccc(O)c2C1=O,NF-kB SEAP reporter activity,[1]; [9],0.149
same,NF-kB SEAP reporter activity,[1]; [10],0.273
